# Screen size: about 210,000 compounds; about 5,900 (2.8%) were called active. This list was built around the results that the source calls inconclusive (neither active nor inactive); the mix of calls is not that of the screen. Calls come from the whole dose curve; as a rule, active = well fitted activation curve with a large enough effect; inconclusive = small, poorly fitted or top-dose-only effect; inactive = no such curve, though single readings can be large or run the other way. Where the call is inconclusive, the potency comes from a doubtful curve fit.
# Experiment: qHTS Assay for Enhancers of SMN2 Splice Variant Expression; note: nearly all actives have a fitted effect of over 55% in size; for activity change, positive = activation: % of control where 0% means no effect
# Conditions: HEK293 SMN2-luciferase splicing reporter, luminescence, 30-36 h; activity change, positive = activation: at 46.1 µM (top of the series)
# Outline: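 qHTS luciferase splicing reporter: luminescence rises when SMN2 exon 7 is included in transfected HEK293 cells. Compound exposure lasted 30-36 h at 37C, with 4.5 mM final sodium butyrate as control, followed by a ONE-Glo read.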
# Potency is the fitted concentration of half-maximal effect; tags give direction and shape of the fitted curve.
SMILES,Potency,"activity change, positive = activation"
CCOc1ccc(C(=O)NCCn2cc(SCC(=O)NCCc3ccc(OC)c(OC)c3)c3ccccc32)cc1,inactive,
Cc1ccc(C(=O)Nc2ccc(Cl)c(-c3nc4ncccc4o3)c2)c(C)c1,"inconclusive: 17.8 µM [activator, single point]",
O=C(Nc1ccc(F)cc1)[C@H](Cc1ccccc1)N1Cc2ccccc2C1=O,inactive,
CC1(C)N=C(N)N=C(N)N1c1cccc(OCc2cccc([N+](=O)[O-])c2)c1,,inactive: -2.84% [at 9.22 µM]
COc1ccc(C(=O)n2cc(C(=O)c3cc(C)ccc3O)cn2)cc1,"inconclusive: 2.51 µM [activator, single point]",
CCCNC(=O)c1cc(-c2ccc(Br)cc2)on1,"inconclusive: 11.2 µM [activator, single point]",
CCC(NS(=O)(=O)c1c(C)[nH]c(=O)[nH]c1=O)C12CC3CC(CC(C3)C1)C2 (stereo not given),inactive,
COc1ccc(CNc2nc(-c3ccc(C(=O)N(C)C)cc3)nc3ccccc23)c(OC)c1,"inconclusive: 11.2 µM [activator, partial curve]",
COc1ccc2cc(C(=O)NCc3ccco3)c(=Nc3ccc(C(=O)O)cc3)oc2c1,inactive,
CCOC(=O)c1c(Nc2ccccc2)sc(/C=C2\C=Nc3ccccc32)c1O,inactive,
COC(=O)C1=C(C(=O)OC)[C@@H]2N(C)c3ccccc3[C@@]23C[C@@H](CO)N(C(=O)c2ccco2)C3=N1,"inconclusive: 3.16 µM [activator, partial curve]",
N#C/C(=C/c1ccc(N2CCOCC2)o1)c1ccc(Br)cc1,"inconclusive: 31.6 µM [activator, single point]",
CC1(C)CC(=O)C2=C(C1)Nc1ccccc1N=C2,"inconclusive: 5.62 µM [activator, partial curve]",
Cc1[nH]c2ccccc2c1/C=N/Nc1nncn1N,inactive,
CCn1ccc(C(=O)Nc2cccc(Cl)c2)n1,active: 12.6 µM,
CCOC(=O)C1=C(O)C(=O)N(c2ccc(S(N)(=O)=O)cc2)C1c1ccccc1 (stereo not given),"inconclusive: 5.01 µM [activator, partial curve, poor fit]",
Cc1nn(CC(C)C)c(=S)[nH]c1=O,active: 5.62 µM,
CC(NC(=O)CCCCCN1C(=O)c2ccccc2C1=O)c1ccc2c(c1)CCCC2 (stereo not given),"inconclusive: 0.004 µM [activator, full curve, poor fit]",
COC(=O)c1ccccc1NC(=O)Nc1ccc(Br)cn1,"inconclusive: 22.4 µM [activator, single point]",
COCC(C)N=C1NN=C(c2ccc(NC(C)=O)cc2)CS1 (stereo not given),"inconclusive: 7.08 µM [activator, partial curve]",
CSC1=C(C#N)C(c2sccc2C)CC(=O)N1 (stereo not given),inactive,
O=C(NCc1ccco1)c1cc(-c2cccs2)on1,"inconclusive: 22.4 µM [activator, single point]",
COc1ccc(Cl)cc1-c1nc(SCC(=O)NC(C)C)n[nH]1,"inconclusive: 20 µM [activator, single point]",

SMILES,Potency,"activity change, positive = activation"
CC1CCc2c(sc(NC(=O)COc3ccccc3)c2C(=O)Nc2ccccc2Cl)C1 (stereo not given),"inconclusive: 0.0708 µM [activator, full curve, poor fit]",
COCCNC(=O)C(C)OC(=O)c1nsc(Cl)c1Cl (stereo not given),"inconclusive: 0.0316 µM [activator, full curve]",
O=C(Nc1ccccc1)OCc1ccccn1,"inconclusive: 35.5 µM [activator, single point]",
Cc1ccc(CNC(=O)c2ccc3c(c2)N(Cc2ccccc2F)C(=O)c2ccccc2S3(=O)=O)cc1,inactive,
COc1ccc(-c2csc(N3C(=O)CNC3=S)n2)cc1,active: 1.26 µM,
O=P(c1ccccc1)(c1ccccc1)C1CCCO1 (stereo not given),"inconclusive: 35.5 µM [activator, single point]",
CCCCc1nc(SCc2ccc([N+](=O)[O-])cc2)n[nH]1,inactive,
CCOc1ccccc1OC(=O)c1cc2ccccc2oc1=O,inactive,
CCOC(=O)NC(CC(=O)O)c1ccc(OC)c(OC)c1 (stereo not given),"inconclusive: 2.82 µM [activator, single point]",
CCOC(=O)CSc1nc(=O)n2ccccc2n1,inactive,
O=C(CCN1C(=O)c2ccccc2C1=O)Nc1ccc(-c2cn3ccsc3n2)cc1,"inconclusive: 5.62 µM [activator, partial curve, poor fit]",
CC(C)(C)c1ccc(NC(=O)Nc2ccc(OCC(=O)N3CCOCC3)cc2)cc1,active: 15.8 µM,
COc1ccc2cc(-c3cc(C(=O)OCC(=O)Nc4c(C)n(C)n(-c5ccccc5)c4=O)c4ccccc4n3)ccc2c1,active: 2 µM,
Cc1ccc2nc(-c3ccc(NC(=O)COc4c(C)ccc(C)c4C)cc3)sc2c1,"inconclusive: 15.8 µM [activator, partial curve, poor fit]",
CC(=O)Oc1oc(-c2ccccc2)nc1/C=N/c1ccccn1,"inconclusive: 35.5 µM [activator, partial curve, poor fit]",
CCCCNc1nc(Oc2ccc(=O)n(C)n2)nc(N(C)C)n1,"inconclusive: 25.1 µM [activator, partial curve, poor fit]",
CCS(=O)(=O)N1CCCC(c2nc(-c3cccc(OC)c3)no2)C1 (stereo not given),"inconclusive: 8.91 µM [activator, partial curve, poor fit]",
CCC(=O)Nc1cccc(-c2csc(-c3ccccc3)n2)c1,"inconclusive: 6.31 µM [activator, full curve]",
O=c1[nH]c(=O)n([C@@H]2C[C@H](O)[C@H](CO)O2)cc1I,"inconclusive: 10 µM [activator, partial curve]",
O=C(CSc1nc2ccccc2[nH]1)c1ccco1,"inconclusive: 5.62 µM [activator, single point]",
C=CCNC(=O)CC(=O)N/N=C/c1ccccc1F,"inconclusive: 5.62 µM [activator, partial curve, poor fit]",
Cc1csc(NC(=O)CSc2nc(C)cs2)n1,"inconclusive: 35.5 µM [activator, single point]",
